Laboratory results: PubChem BioAssay AID652104 (National Center for Advancing Translational Sciences (NCATS), 2013)
Several values for one entry are separate records, joined by “and”; a condition that tells them apart may be missing. Equal entries are not always repeated. About 7,200 (1.8%) of roughly 410,000 compounds were called active. Inconclusive results, whose numbers are uncertain, are shown with a selection of clear calls. Calls follow the shape of the dose curve; as a rule, active = well fitted activation curve with a large enough effect; inconclusive = small, poorly fitted or top-dose-only effect, or another doubt; inactive = no such curve, though single readings can be large or run the other way. No potency is given beside an inconclusive call; the fits are too rough.

Test: qHTS of TDP-43 Inhibitors; also: nearly all actives have a fitted effect of over 50% in size; as to growth rescue (activation): % of control where 0% means no effect
Conditions: TDP-43 expressing yeast growth rescue, BacTiter-Glo, 24 h; growth rescue (activation): at 46.1 µM (top of the series) unless noted
Outline: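 Yeast expressing TDP-43 (pregrown in raffinose, seeded at OD600=0.02 in galactose medium) exposed to compounds 24 hr at 30 deg C. Growth read by BacTiter-Glo luminescence; rescue of toxicity appears as increased signal.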
Potency is read from the fitted curve at half-maximal effect; tags tell the direction and shape of the fitted curve.

SMILES	Potency	growth rescue (activation)
Cc1cccc(C(=O)N2c3ncnn3C3(CCCCC3)[C@@H]3CCCC[C@@H]32)c1	inconclusive [activator, partial curve]	–
Fc1ccc(C(NCCc2ccc(Cl)cc2)c2nnc(-c3ccccc3Cl)o2)cc1 (stereo not given)	active: 31.6 µM	–
CC1(C)CC(=O)C=C(NC2=CC3OC(c4ccccc4)OCC3OC2=O)C1 (stereo not given)	active: 12.6 µM	–
COc1cccc(N2CCN(C(=O)c3oc4ccccc4c3NC(=O)Cc3ccc(OC)c(OC)c3)CC2)c1	inconclusive [activator, single point]	–
CC1CCc2c(sc3nc(CN4CCOCC4)nc(Sc4ccccc4)c23)C1 (stereo not given)	inconclusive [activator, single point]	–
CCOC(=O)c1c(C)[nH]c(C)c1S(=O)(=O)N1CCCC(C(=O)Nc2cccc(CC)c2)C1 (stereo not given)	–	inactive: 0%
O=Nc1c2cc3ccccc3[nH]c-2c2ccccc12	inconclusive [activator, single point]	–
Cc1cc(C)cc(NC(=S)NC(=O)C2CC2)c1	active: 11.2 µM	–
CSc1ccc(/C=C/c2nc3ccccc3n2S(=O)(=O)c2ccc(Br)cc2)cc1	–	inactive: -42.7%
Cc1ccc(-c2c3c(=O)n(C)c(=O)n(C)c3c3cnc4ccccc4n23)cc1	–	inactive: -26.6%
COc1ccc2[nH]c3c(c2c1)CCN1C(=O)C(CC(=O)NCC24CC5CC(CC(C5)C2)C4)C[C@H](C(=O)N(C(C)C)C(C)C)[C@@]31C (stereo not given in full)	active: 11.2 µM	–
O=C(CSc1cccc2cccnc12)OCC(=O)c1ccccc1	inconclusive [activator, single point]	–
O=C(CCCN1C(=O)/C(=C/c2ccccc2Cl)SC1=S)Nc1ccccn1	–	inactive: 6.5%
C=C(C)c1cccc(C(C)(C)NC(=O)N2CCN(c3ccccc3OC)CC2)c1	inconclusive [activator, partial curve, poor fit]	–
CC(=O)c1ccc(C(=O)N2CCCC(CO)(Cc3ccccc3C)C2)s1 (stereo not given)	inconclusive [activator, single point]	–
NS(=O)(=O)c1ccc(NC(=O)CN2CCN(S(=O)(=O)c3ccc(F)cc3)CC2)cc1	inconclusive [activator, single point]	–
Cc1ccc(Cc2c(-c3ccc(C)cc3)nc3ccc(Br)cn23)cc1	inconclusive [activator, single point]	–
Cn1c(SCC(=O)Nc2nc3ccccc3s2)ncc(C(=O)Nc2ccc(Cl)cc2)c1=O	–	inactive: 0%
CC1CC(C)(C)N(C(=O)CN2C(=O)c3ccccc3C2=O)c2ccccc21 (stereo not given)	inconclusive [activator, single point]	–
CCOC(=O)c1ccc(NC(=O)CSc2nc(-c3ccc(F)cc3)cc(C(F)(F)F)c2C#N)cc1	inconclusive [activator, full curve, poor fit]	–
CCOc1ccc(NC(=O)C2=C(C)C(=O)OC23CCC(C)CC3)cc1 (stereo not given)	active: 15.8 µM and active: 20 µM	–
O=C(NCc1ccccn1)c1cc(-c2ccc(Br)cc2)nc2ccccc12	inconclusive [activator, full curve, poor fit]	–

SMILES	Potency	growth rescue (activation)
O=C(COc1cccc2cccnc12)Nc1ccccc1N1CCOCC1	inconclusive [activator, partial curve]	–
O=S(=O)(c1ccc(NC(=S)NC23CC4CC(CC(C4)C2)C3)cc1)N1CCCCC1	inconclusive [activator, partial curve]	–
CCOc1ccccc1NC(=O)CSc1ccc(-c2ccco2)nn1	inconclusive [activator, partial curve]	–
Cc1c(C(=O)NCCSCc2ccc(Cl)cc2Cl)cccc1[N+](=O)[O-]	active: 14.1 µM	–
CCOC(=O)c1ccc(N/C(=N/S(=O)(=O)c2ccccc2)c2ccccc2)cc1	inconclusive [activator, single point]	–
COc1ccc2[nH]c3c4c(ccc3c2c1)C(=O)C=CC4=O	inconclusive [activator, partial curve]	–
O=C(CSc1ncc2c(n1)-c1cc(Cl)ccc1N(Cc1ccccc1)S2(=O)=O)NCCc1ccccc1	–	inactive: 12.4%
O=C(c1cccc(F)c1)N1CCN(c2cccc(C(F)(F)F)c2)CC1	active: 14.1 µM	–
Cc1c(C(=O)NCc2cccnc2)oc2ccc(S(=O)(=O)N3CCCCCC3)cc12	inconclusive [activator, full curve]	–
CCCNC(=O)c1ccc(COc2cccc3ccccc23)o1	active: 17.8 µM	–
CCCNC(=S)Nc1ccc(Br)cc1	inconclusive [activator, single point]	–
CCCn1c(SCc2ccon2)nc2ccccc2c1=O	inconclusive [activator, partial curve]	–
COc1cccc(NC(=O)CN(C)C(=O)c2ccccc2CCc2ccccc2)c1	inconclusive [activator, single point]	–
CCOc1cccc(CNC(=O)c2ccc(N3CCCC3)c(NC(=O)Nc3ccccc3CC)c2)c1	–	inactive: 14.4%
C/C(=N\NC(=S)Nc1ccc(C)c(C)c1)c1ccc(N2CCOCC2)cc1	inconclusive [activator, single point]	–
COc1ccc(C2CC(=O)c3cc(-c4nc(-c5ccc(C)cc5)cs4)c(=O)[nH]c3C2)cc1 (stereo not given)	–	inactive: 14.9%
CCc1cc2cc(OC)ccc2nc1SCC(=O)Nc1cc(OC)c(OC)cc1C(=O)O	inconclusive [activator, single point]	–
COc1ccc(CCN2C(=O)CN(Cc3ccccc3)CC2=O)cc1OC	inconclusive [activator, single point]	–
COc1ccccc1NS(=O)(=O)c1cc(NC(=S)Nc2cc(C)cc(C)c2)ccc1Cl	inconclusive [activator, partial curve]	–
O=C(NC(=S)N(CCCCO)C1CCCCC1)c1sc2ccccc2c1Cl	inconclusive [activator, single point]	–
CC(=O)c1ccc(CCCc2ccc(C(C)=O)cc2)cc1	inconclusive [activator, single point]	–
O=C(Nc1cccc2cccnc12)c1ccc2c(c1)OCCO2	inconclusive [activator, single point]	–

SMILES	Potency	growth rescue (activation)
CCCCNC(=O)CCn1nc(-c2ccc(Cl)cc2)c2ccccc2c1=O	inconclusive [activator, partial curve]	–
COc1ccc(N2CCN(CCS(=O)(=O)c3cc(Cl)ccc3Cl)CC2)cc1	active: 12.6 µM	–
Cc1ccc(C2CCN(C(=S)NC(C)(C)C)C2)cc1 (stereo not given)	inconclusive [activator, partial curve]	–
C=CCn1c(=NC(=O)C2CC2)sc2cc(NC(C)=O)ccc21	inconclusive [activator, partial curve]	–
Cc1ccc(-n2nnnc2Sc2nc([N+](=O)[O-])nn2C)cc1C	inconclusive [activator, single point]	–
Cc1c(C(=O)NC(=S)Nc2ccccc2N2CCCC2)cccc1[N+](=O)[O-]	inconclusive [activator, partial curve]	–
O=C(c1cc2cc(Br)ccc2o1)N1CCN(c2ccccc2)CC1	–	inactive: 11.1%
C/C=C(\C)C(=O)OC1[C@H](OC(C)=O)C2(CO)C(CC1(C)C)C1=CCC3C4(C)CCC(O[C@@H]5O[C@H](C(=O)O)[C@@H](O[C@@H]6O[C@H](CO)[C@@H](O)[C@H](O)[C@H]6O)[C@H](O)[C@H]5O[C@H]5O[C@H](CO)[C@@H](O)[C@H](O)[C@H]5O)[C@](C)(CO)C4CCC3(C)[C@]1(C)C[C@H]2O (stereo not given in full)	inconclusive [activator, partial curve]	–
Cc1cc(C)n(CCc2nc(-c3cccs3)cs2)n1	inconclusive [activator, single point]	–
C[C@H]1CN=C(Nc2ccccc2)N1CC1CCCCC1	inconclusive [activator, single point]	–
Clc1ccccc1COc1ccc(/C=N/n2cnnc2)cc1	inconclusive [activator, partial curve]	–
CCCCn1nnnc1C(c1ccccc1)N1CCN(c2ccc(F)cc2)CC1 (stereo not given)	active: 28.2 µM	–
Cc1cc(NC(=O)C2CCC2)n(-c2ccccn2)n1	inconclusive [activator, single point]	–
COc1ccc(-c2cc(C)no2)cc1S(=O)(=O)N1CCCC(C)C1 (stereo not given)	inconclusive [activator, partial curve]	–
COc1ccc(CCCC(=O)NC2CCCCC2C)c(C)c1 (stereo not given)	inconclusive [activator, single point]	–
Cc1cccc(N=C2NC(=O)c3cc([N+](=O)[O-])ccc32)c1	inconclusive [activator, partial curve]	–
Cc1ccc(/C=C/C(=O)OCc2nc(N)nc(Nc3ccccc3C)n2)o1	inconclusive [activator, single point]	–
Cc1cc(Oc2nnnn2-c2ccccc2)ccc1Cl	inconclusive [activator, single point]	–
COc1cc(Br)c(Br)c(Br)c1N	inconclusive [activator, single point]	–
CN(C)S(=O)(=O)Oc1ccccc1C(=O)Nc1ccc(F)cc1F	–	inactive: -7.68%
CCOC(=O)c1c(C)oc2nc(C)nc(NCCc3ccc(OC)c(OC)c3)c12	inconclusive [activator, partial curve]	–
